Article PMC6919601, “Identification of Plasmodium dipeptidyl aminopeptidase allosteric inhibitors by high throughput screening” (PLoS ONE, 2019)
Several values for one entry are separate records, joined by “and”; a condition that tells them apart may be missing. Identical values can stand only once. About 230 (0.21%) of roughly 110,000 compounds showed an effect of 50% or more. This is one part of the list.

Target: DPAP1 (Plasmodium falciparum, UniProt Q8IIJ9)
Test: primary screen, percent inhibition; read by cleavage of a fluorogenic dipeptide substrate; higher = more effect of the substance
Design: species or system P. falciparum D10 trophozoite lysates; single well
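Further: 30 min substrate incubation versus DMSO and 10 µM JCP410 controls.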

Chain of DPAP1 (Q8IIJ9 whole entry, looked up): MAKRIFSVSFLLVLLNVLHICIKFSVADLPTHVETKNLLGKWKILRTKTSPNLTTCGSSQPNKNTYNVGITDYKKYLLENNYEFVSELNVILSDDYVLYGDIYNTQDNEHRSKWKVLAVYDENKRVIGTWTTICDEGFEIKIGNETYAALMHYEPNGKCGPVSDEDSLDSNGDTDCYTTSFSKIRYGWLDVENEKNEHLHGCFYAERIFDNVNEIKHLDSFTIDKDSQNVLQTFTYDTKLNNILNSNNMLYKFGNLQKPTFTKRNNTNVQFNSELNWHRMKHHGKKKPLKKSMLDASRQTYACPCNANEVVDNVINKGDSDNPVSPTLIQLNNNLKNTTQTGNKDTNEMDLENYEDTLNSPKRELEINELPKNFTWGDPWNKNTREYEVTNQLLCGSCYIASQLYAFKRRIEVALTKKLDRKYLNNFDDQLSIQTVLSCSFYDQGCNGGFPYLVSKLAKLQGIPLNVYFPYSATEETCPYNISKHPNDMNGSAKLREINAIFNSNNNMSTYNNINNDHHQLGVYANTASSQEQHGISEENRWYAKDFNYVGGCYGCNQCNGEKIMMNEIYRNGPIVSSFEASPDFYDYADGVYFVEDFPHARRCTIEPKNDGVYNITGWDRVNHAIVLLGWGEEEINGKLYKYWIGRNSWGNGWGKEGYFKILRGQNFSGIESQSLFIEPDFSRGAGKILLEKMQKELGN

Structure (SMILES) | % Inhibition @ 10 uM
Cc1ccccc1S(=O)(=O)Cc1ccc(C(=O)NCCC2=CCCCC2)o1 | 0.458%
O=C1c2ccccc2-c2onc3c(N4CCCC4)cc(N4CCCC4)c1c23 | -2.8%
O=C(CN1N=C(c2ccccc2)CCC1=O)NCC1CCCO1 (centres unmarked) | -2.99%
CN(C)CCNc1cc(-c2ccccc2)nc2ccccc12 | -3.44%
COCCNC(=O)c1ccc(CSc2nc3ccncc3n2Cc2ccc(F)cc2)cc1 | -0.637%
Cn1c(=O)c2c(-c3ccc(Cl)cc3)n(-c3ccccc3Cl)cc2n(C)c1=O | 0.366%
Cn1c(=O)c2c(-c3cccnc3)c(C#N)c(N)nc2n(C)c1=O | -0.0372%
O=C1N/C(=C\c2ccc(Br)s2)C(=O)N1Cc1ccc(Cl)cc1 | -6.86%
CCOc1cc(/C=C2/NC(=O)N(CC(=O)Nc3cccc(C)c3)C2=O)ccc1O | 2.86%
O=C(Nc1ccc(N2CCOCC2)cc1)c1cccc(Br)c1 | -7.97%
CCC(N1C(=O)NC(NC(=O)c2ccc(OC)cc2)(C(F)(F)F)C1=O)C12CC3CC(CC(C3)C1)C2 (centres unmarked) | -4.35%
CC(C)(C)NC(=O)Cn1cc(C(=O)C2CCCCC2)c2ccccc21 | 2.1%
O=S(=O)(NCCSCc1ccco1)c1ccc(-c2cc(C(F)(F)F)no2)s1 | -3.05%
NC(=O)c1ccccc1NC(=O)Nc1ccc(Cl)cc1 | -2.42%
COCCn1c(C)cc(C(=O)C(=O)Nc2nnc(Cc3ccccc3F)s2)c1C | -1.06%
Nn1c2ccccc2c2ccccc21 | -4.74%
CC1=CC2=NC(=O)/C(=C\c3cc(C)n(-c4ccccc4)c3C)C(=N)N2O1 | 2%
Cc1cccc(OCCSc2nc(-c3ccccc3)nc3cc(=O)[nH]n23)c1 | 1.28%
O=c1c(NCC2CCCO2)c(-c2ccccc2)c1=O (centres unmarked) | 2.78%
CCCC(=O)c1c(Nc2ccc(OC)cc2)cc(C)oc1=O | -2.56%
O=C(NC1CCCC1)C1CCCN(S(=O)(=O)N2CCOCC2)C1 (centres unmarked) | 0.616%
O=C(Cc1c(F)cccc1Cl)NCC1COc2ccccc2O1 (centres unmarked) | 1.2%
Cc1ccc(C2C(=O)N(C3CCC(C)CC3)CC(=O)N2CCc2ccccc2)cc1 (centres unmarked) | 5.99%
CCOc1cccc(-c2cc(C(=O)NCCCN3CCOCC3)c3ccccc3n2)c1 | -8.36%
CC(c1ccccc1)n1cc2c(c1-c1ccc(Br)cc1)c(=O)n(C)c(=O)n2C (centres unmarked) | 2.41%

Structure (SMILES) | % Inhibition @ 10 uM
O=S(=O)(NCc1ccc2c(c1)OCO2)c1ccc(-c2ccccc2)cc1 | 1.28%
CCCOc1ccc(C2CC(=O)Nc3cc(C)c(C)cc32)cc1 (centres unmarked) | -20%
Cc1ccc(-c2cc(C(=O)N3CCC(C(N)=O)CC3)no2)cc1 | 1.91%
Cc1ccccc1C(=O)NC1(C(F)(F)F)C(=O)Nc2c1c(=O)n(C)c(=O)n2C (centres unmarked) | 0.032%
Cc1cc(C(=O)O)c(NC(=O)c2ccccc2Cl)s1 | -4.48% and 1.19%
O=Cc1cccn1-c1c(C(=O)O)cnn1-c1ccccc1 | 1.42%
CCOC(=O)c1cnc(SCc2cccc(C(F)(F)F)c2)nc1N | 3.69%
Cc1nn(CCCC(=O)NC2CCCc3ccccc32)c(=O)c2cc3sccc3n12 (centres unmarked) | 0.137%
CCOc1ccc2sc(/C=N/Cc3ccc(F)cc3)c(O)c2c1 | -0.48% and 5.24%
CCOC(=O)c1sc(NC(=O)CSc2nnc(-c3sc4ccccc4c3Cl)o2)nc1C | -5.85%
O=C(NCc1ccccc1)c1ccc(OC2CSC2)cc1 | -1.33%
N#CC1=C(N)Oc2[nH]nc(-c3ccncc3)c2C1c1ccncc1 (centres unmarked) | 3.92%
CCc1nnc(NC(=O)CSc2nc3c(c(=O)n2CCc2ccccc2)SC(C)C3)s1 (centres unmarked) | -4.81%
O=C(O)c1ccc(C(=O)c2ccc3c(c2)C(=O)N(CC2CCCO2)C3=O)cc1 (centres unmarked) | -1.81%
Cc1ccc(N2C(=O)c3ccc(C(=O)Nc4cccc(O)c4)cc3C2=O)cc1C | 0.774%
Cc1ccc(CN2CCC(CNC(=O)CCc3nnc4ccc(N5CCC(C)CC5)nn34)C2)cc1 (centres unmarked) | 3.77%
COc1ccccc1C1C2=C(O)CC(C)(C)CC2=NC(C)=C1C(=O)Nc1ccccn1 (centres unmarked) | -4.43%
CN1C(=O)c2ccc(C(=O)NCc3ccc(C(=O)O)cc3)cc2C1=O | 5.44%
CC1(C)OC(=O)C(=CN2CCCC2C(=O)O)C(=O)O1 (centres unmarked) | 3.59%
Oc1ccccc1-c1cc(-c2ccccc2)nc(N2CCCC2)n1 | 6.53%
CN(C)c1ccc(C2C(C(=O)c3ccc(Cl)cc3)=C(O)C(=O)N2Cc2ccco2)cc1 (centres unmarked) | -6.68%
O=C1c2ccccc2C(=O)c2c1nc1n2CCOC1 | 2.55%
Cc1ccccc1NC(=O)c1ccc(OC(C)C(=O)O)cc1 (centres unmarked) | -1.82%
O=CN1CCN(C2CCN(CCc3ccccc3)CC2)CC1 | -4.08%
O=C(c1cccs1)N1CCN(Cc2ccccc2)CC1 | -1.64%

Structure (SMILES) | % Inhibition @ 10 uM
O=C(NC1CCCCC1)n1c(=O)oc2ccc(Cl)cc21 | -11.4%
CCc1ccc(CNc2ncnc3onc(-c4ccc(F)cc4)c23)cc1 | 1.92%
COc1ccc(C(=O)Nc2ccc(Cl)cn2)cc1Cl | -0.357%
CC1=NOC(=O)/C1=C/c1ccc(O)cc1 | -1.6%
O=C(O)CNC(=O)c1cn(-c2ccccc2)nc1-c1ccccc1 | -4.61%
CCc1ccc(S(=O)(=O)c2nnn3c2nc(NCCOC)c2cc(Cl)ccc23)cc1 | 0.291%
CCOc1ccccc1NC(=O)c1cccc(Cl)c1 | -4.26%
CCN(CC)S(=O)(=O)c1nnc(NC(=O)/C=C/c2ccccc2)s1 | 4.86%
C=C(C)CSc1nc(N)c2c3c(sc2n1)COC(C)(C)C3 | 1.01%
CC1(C)CC(=O)C2=C(C1)N(c1ccc(Br)cc1)C(N)=C(C#N)C2c1ccsc1 (centres unmarked) | 2.38%
COc1cc(C(=O)NCCC(=O)NC2CCCc3ccccc32)cc(OC)c1OC (centres unmarked) | -4.06%
CCCCCc1nnc(NC(=O)OCCC)s1 | 3.74%
CCc1ccc(-c2cc3c(=O)n(CC(=O)NCc4ccccn4)nc(C)n3n2)cc1 | -1.08%
O=C(c1cnn(-c2ccccc2)c1-n1cccc1)N1CCOCC1 | 0.137%
O=C(Cn1ncn2c(cc3ccccc32)c1=O)NCc1ccc2c(c1)OCO2 | 0.0198%
CC(C)N(CCCNC(=O)c1nn(C)c2c1CSc1ccccc1-2)Cc1ccccc1 | -1.72%
Cc1cc(C)c2c(N)c(C(=O)c3ccc(F)cc3)sc2n1 | -0.546%
CCOc1ccc(CN2CCNCC2CCO)cc1 (centres unmarked) | -2.91%
CCOc1ccc(OCCSc2nnnn2C2CCCCC2)cc1 | -1.48%
CCOc1ccc(NC2=NC(=O)CC(C(=O)Nc3ccc(OC)cc3)N2)cc1 (centres unmarked) | 3.56%
CC1=C(C(=O)OC(C)C)C(c2ccc(Cl)c(Cl)c2)N2C(=O)CCSC2=N1 (centres unmarked) | -7.58%
Cc1nnc(N2CCCC(C(=O)N3CCC(C)CC3)C2)c2nn(-c3ccc(Cl)cc3)c(C)c12 (centres unmarked) | 3.42%
CC1CCCN(CCCNC(=O)Cn2nc(-c3ccccc3)ccc2=O)C1 (centres unmarked) | 2.18%
O=c1cccc2n1CC1CC2CN(c2nc(Cl)nc(NCCN3CCOCC3)n2)C1 (centres unmarked) | 2%
Cc1nn(C)c(C)c1CN(C)C(=O)c1cnn2c(C(F)F)cc(-c3ccccc3)nc12 | 2.22%

Structure (SMILES) | % Inhibition @ 10 uM
COc1ccc(-c2cn3c(n2)sc2cc(C(=O)NCc4ccc5c(c4)OCO5)ccc23)cc1 | 3.54%
CC(=O)N1c2ccccc2C(Nc2ccccc2)CC1C (centres unmarked) | -0.424%
CN(c1ccc(C(=O)NCc2ccncc2)cc1)S(C)(=O)=O | -1.6%
COc1cc(/C=C2\N=C(c3cccc(F)c3)OC2=O)cc(OC)c1OC | 6.11%
CCCCNC(=O)C(CC)Sc1nc2nnc(C)c-2c(N)n1-c1ccc(OC)cc1 (centres unmarked) | 2.8%
C=CCN(CC=C)C(=O)C(c1ccccc1)c1ccccc1 | 1.55%
COC(=O)C1=C(C)NC(=O)CC1c1ccc(F)cc1F (centres unmarked) | -1.37%
CCc1ccc(C2C3=C(O)CC(C)(C)CC3=NC(C)=C2C(=O)OC)s1 (centres unmarked) | -0.13%
CNC(=O)CCCc1nnc2n(CC(C)C)c(=O)c3sccc3n12 | 4.23%
CC12CN3CC(C)(CN(C1)C3(C)CSc1c[nH]c3ccccc13)C2=O (centres unmarked) | 7.2%
COc1ccc(-n2cc(-c3ccccc3)c3c(NCc4cccnc4)ncnc32)cc1 | -1.44%
CSc1nc2c(c(=O)n(C)c(=O)n2C)n1Cc1ccc(Cl)cc1 | -5.79%
COc1cc(NC(=O)c2ccc(N(C)C)cc2)c(Cl)cc1NC(=O)c1ccccc1 | -1.65%
CCCCC(=O)Nc1cc(-c2nc3ncccc3o2)ccc1Cl | 2.38%
COc1cccc2c(=O)cc(-c3ccc4c(c3)OCO4)n(C)c12 | 8.44%
CCC/N=c1\c(NS(=O)(=O)c2ccc(F)c(C)c2)c(O)oc2ccccc12 | -2.41%
CC1CCN(C(=O)CCN2C(=O)c3ccccc3C2=O)CC1 | 2.06%
COc1ccc(C(=O)Nc2ncc(Cc3cccc(Cl)c3)s2)cc1OC | 13%
CC(C)C[C@H](NC(=O)OC(c1ccccc1)C1CC1)C(=O)NCC#N (some centres unmarked) | -3.04%
CC(C)CNC(=O)c1cc(-c2ccccc2O)on1 | 0.628%
Cc1noc2ncnc(N3CCC(Cc4ccccc4)CC3)c12 | -2.15%
Cc1ccc(S(=O)(=O)N(CC(=O)NC2CC3CCC2C3)c2ccccc2C)cc1 (centres unmarked) | 1.57%
COc1ccc(C2CC(=O)c3cnc(NC(=O)c4ccccc4)nc3C2)cc1OC (centres unmarked) | 2.38%
